Assay results published in PubChem BioAssay AID485281 (National Center for Advancing Translational Sciences (NCATS), 2010).
Values joined by “and” are separate entries in the source; they are usually repeats but may differ in a detail not shown here. Equal values may be shown once. Screen size: about 350,000 compounds; about 260 (0.074%) were called active. The inconclusive results got no clear call from the source; some entries with a clear call stand among them for comparison. Calls follow the shape of the dose curve; as a rule, active = well fitted inhibition curve with a large enough effect; inconclusive = small, poorly fitted or top-dose-only effect; inactive = no such curve, though single readings can be large or run the other way. A potency beside an inconclusive call is a rough fit, not a confirmed value.

biological target: Ferritin light chain (Equus caballus) (UniProt P02791); assay: qHTS Assay for Identification of Novel General Anesthetics; settings: apoferritin/1-aminoanthracene competitive binding, fluorescence; series mostly up to 77.5 µM; also: nearly all actives have a fitted effect of over 20% in size
Procedure, shortened: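 Concentration-response curves derived by four-parameter Hill fitting of normalized fluorescence, where compounds displaced 1-AMA from 10 uM horse apoferritin following a brief 10 min room-temperature incubation; propofol titration acted as positive control.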
Potency is read from the fitted curve at half-maximal effect; tags tell the direction and shape of the fitted curve.

Chain of UniProt P02791 (P02791 whole entry, looked up): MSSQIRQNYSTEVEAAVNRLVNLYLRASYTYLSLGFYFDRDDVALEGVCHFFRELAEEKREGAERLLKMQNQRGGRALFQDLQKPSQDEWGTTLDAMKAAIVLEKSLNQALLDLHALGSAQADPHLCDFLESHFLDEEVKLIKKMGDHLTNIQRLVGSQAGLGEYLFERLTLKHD

SMILES	Potency
CC(C)(C)c1cc[n+](/C(C(=S)NC2CC2)=C(/[O-])c2ccc(Cl)s2)cc1	inconclusive: 31.6 µM [inhibitor, partial curve]
Cc1ccc2c(c1)N(C(=O)c1ccco1)C(C)(C)c1ssc(=S)c1-2	inconclusive: 11.2 µM [inhibitor, partial curve, poor fit]
Cc1ccc(C(=O)NC(=S)Nc2ccccc2C(F)(F)F)cc1C	inconclusive: 14.1 µM [inhibitor, partial curve]
CC(C)(C)c1ccccc1N=Cc1ccc2ccccc2n1	inconclusive: 31.6 µM [inhibitor, partial curve]
CC(C)c1cc(C(=O)N/N=C/c2ccoc2)c(O)c(C(C)C)c1	inconclusive: 31.6 µM [inhibitor, partial curve]
CC1(C)Cc2c(C#N)c(NCCO)nc(-c3ccco3)c2CO1	inactive
CSc1nc(-c2ccco2)nn1S(=O)(=O)c1ccc(C)cc1	inactive
Clc1ccc2[nH]c3c(c2c1)CCc1cn[nH]c1-3	inconclusive: 39.8 µM [inhibitor, single point]
CCc1nc2oc3cc(OC)ccc3c(=O)c2c(=O)n1Cc1ccccc1	inconclusive: 10 µM [inhibitor, partial curve]
CCNc1ccc(Br)cc(C(=O)/C=C/c2c(Cl)cccc2Cl)c1=O	inconclusive: 28.2 µM [inhibitor, single point]
Cc1ccc(NC(=O)C(C)N2CCCC2)cc1Cl (configuration not stated)	inconclusive: 39.8 µM [inhibitor, single point]
CN(C)/C=C1\N=C(c2ccccc2)OC1=O	inconclusive: 39.8 µM [inhibitor, single point]
N/C(=N\OC(=O)Nc1ccccc1)c1ncc(C(F)(F)F)cc1Cl	inconclusive: 50.1 µM [inhibitor, partial curve]
CCn1cc(C(=O)N2CCN(c3ccccc3)CC2)c(=O)c2cc(S(=O)(=O)N3CCC(C)CC3)ccc21	inconclusive: 50.1 µM [inhibitor, single point]
Cc1cc(C)c2cc(CN(CCN3CCCC3)C(=O)Nc3ccc(F)cc3)c(=O)[nH]c2c1	inconclusive: 14.1 µM [inhibitor, partial curve]
Cc1c(Br)c([N+](=O)[O-])nn1CC(=O)Nc1ccc(C(C)C)cc1	inconclusive: 25.1 µM [inhibitor, partial curve]
Cc1nn2cnc3sc4c(c3c2nc1=O)CCCC4	inconclusive: 3.98 µM [inhibitor, full curve]
CCOC(=O)C1(CCCc2ccccc2)CCN(Cc2cn(CC)nc2C)CC1	inactive
COc1ccccc1CNC(=O)c1cc2c(=O)n(Cc3cccs3)ccc2nc1C	inconclusive: 35.5 µM [inhibitor, partial curve]
CCOc1ccc(NC(=O)CN2CCN(CC(=O)Nc3cccc(F)c3)CC2)cc1	inactive
CC1(C)CC(=O)c2c(oc3cc(O)c(O)cc23)C1	inconclusive: 22.4 µM [inhibitor, partial curve] and inconclusive: 44.7 µM [inhibitor, partial curve]
CC12CCC(c3c(CO)nn(-c4ccccc4)c31)C2(C)C (configuration not stated)	inconclusive: 35.5 µM [inhibitor, partial curve]
Cn1c(SCC(=O)Nc2nc3c(s2)CCCC3)nnc1-c1ccccc1	inconclusive: 4.47 µM [inhibitor, full curve]

SMILES	Potency
O=C(Nc1ccc(OC(F)(F)F)cc1)NC1COc2ccccc2C1 (configuration not stated)	inactive
Cc1ccc(S(=O)Cc2nc(-c3ccc(C(=O)NC(C)c4ccccc4)cc3)oc2C)cc1 (configuration not stated)	inconclusive: 50.1 µM [inhibitor, single point]
CN=Cc1c(NC)nc2c(C)cccn2c1=O	inactive
COC(=O)c1cc(CSc2nnc(-c3ccccc3)c(-c3ccccc3)n2)oc1C	inactive
Cc1ccc2c(c1)nc(SCC(O)c1ccc(Br)cc1)n2C (configuration not stated)	inactive
COC(=O)c1ccc(C(=O)OC)c(NC(=O)c2c(-c3ccccc3)c(-c3ccccc3)nn(C)c2=O)c1	inconclusive: 56.2 µM [inhibitor, single point]
CCn1nc(C)c(C(=O)Nc2cc(Oc3cc(C)cc(C)c3)cc([N+](=O)[O-])c2)c1C	inconclusive: 22.4 µM [inhibitor, partial curve]
CC(=O)c1cccc(NC(=O)Cn2c(C)c3cnn(-c4ccccc4)c(=O)c3c2C)c1	inconclusive: 14.1 µM [inhibitor, partial curve]
CCN(CC)CCNC(=O)c1ccc2c(c1)N(Cc1ccccc1)C(=O)c1ccccc1S2=O (configuration not stated)	inconclusive: 28.2 µM [inhibitor, partial curve]
CCc1ccc(OCC(=O)NCC(c2ccc(OC)cc2)N2CCOCC2)cc1 (configuration not stated)	inactive
C/C(Cn1nnc([N+](=O)[O-])n1)=N\NC(=O)c1ccccc1O	inactive
Cc1ccc(NC(=O)C2CCN(S(=O)(=O)c3ccc(N4CCCC4=O)cc3)CC2)cc1Cl	inactive
O=C1c2ccccc2-c2nnc(-c3ccc(O)cc3)cc21	inconclusive: 25.1 µM [inhibitor, partial curve]
COc1cc(OC)c2c(-c3cccc(/C=C/c4ccc(F)cc4)c3)cc(=O)oc2c1	inactive
O=C(CC(=O)NC1CCCCC1)N/N=C/c1ccccc1F	inconclusive: 3.16 µM [inhibitor, full curve, poor fit]
O=C(O)COc1ccccc1/C=N/NC(=O)CSc1nnc(SCc2ccccc2)s1	inconclusive: 44.7 µM [inhibitor, single point]
CC(C)C1=CC(=Nc2ccc(S(N)(=O)=O)cc2)C=C(C(C)C)C1=O	inconclusive: 39.8 µM [inhibitor, partial curve]
COc1cc2nc(N3CCN(C(=O)[C@H]4COc5ccccc5O4)CC3)nc(N)c2cc1OC	inconclusive: 22.4 µM [inhibitor, partial curve]
COc1cccc(CNC(=O)c2c3c(nc4ccccc24)C(=O)N(C2CCCCC2)C3)c1	inconclusive: 31.6 µM [inhibitor, single point]
O=C(CSc1nnc(SCC(=O)c2ccco2)s1)c1ccco1	inconclusive: 28.2 µM [inhibitor, partial curve]
Cc1nn(C)c(Nc2ccc(Br)cc2)c1Br	inconclusive: 25.1 µM [inhibitor, partial curve]
Clc1ccc(-c2nnc(CSc3nnc(-c4cccs4)n3Cc3ccccc3)o2)cc1	inactive
Cc1ccc(C)c(NC(=O)Cn2c(=O)n(Cc3cccs3)c(=O)c3cccnc32)c1	inconclusive: 20 µM [inhibitor, partial curve]

SMILES	Potency
COc1ccc(OC)c(NC(=O)C(CCSC)NS(=O)(=O)c2cccs2)c1 (configuration not stated)	inactive
COc1ccc(CN2CCN(C(=O)c3cccc4ccccc34)CC2)cc1OC	inactive
O=C(Cc1csc(N2CCOCC2)n1)N/N=C/c1ccc(Cl)cc1Cl	inconclusive: 35.5 µM [inhibitor, partial curve]
Cc1ccc(Nc2ccc(NCc3ccccc3)nn2)cc1C	inconclusive: 50.1 µM [inhibitor, single point]
COc1cc2c(cc1NC(=O)CN1CCN(S(=O)(=O)c3ccccc3F)CC1)oc1ccccc12	inactive
CC1=C/C(=N\N=C2\NC(=O)C(CC(=O)Nc3ccccc3)S2)CC(C)(C)C1 (configuration not stated)	inconclusive: 28.2 µM [inhibitor, single point]
O=C(COC(=O)c1cccc(NS(=O)(=O)c2ccc(F)c(F)c2)c1)NC(=O)NC1CCCCC1	inconclusive: 35.5 µM [inhibitor, partial curve]
COc1ccc(C[C@H]2CN3C(=NC[C@H]3Cc3ccccc3)N2CCNC(=O)c2ccc(C)c(Br)c2)cc1	inconclusive: 17.8 µM [inhibitor, partial curve]
Cc1ccc(-c2cc(C(=O)N3CCN(S(=O)(=O)c4ccc(Br)s4)CC3)[nH]n2)c(C)c1	inactive
COc1cc(-c2nnc(SCC(=O)NC(C)C)o2)cc(OC)c1OC	inconclusive: 31.6 µM [inhibitor, partial curve]
CC(=O)NC/C(C)=N\Nc1ccc([N+](=O)[O-])cc1	inconclusive: 39.8 µM [inhibitor, single point]
CC1=C(c2ccc(C(C)C)cc2)S(=O)(=O)N=C1N1CCN(C(=O)c2ccco2)CC1	inconclusive: 20 µM [inhibitor, partial curve]
CCOC(=O)NCc1ccc2[nH]c(C)cc2c1	inconclusive: 22.4 µM [inhibitor, partial curve]
CCCn1nc(NC(=O)C2CCCO2)c2cc3ccc(C)cc3nc21 (configuration not stated)	inactive
OC(CNCC#Cc1ccccc1)c1ccccc1 (configuration not stated)	inactive
CCN1C(=S)N[C@@H](c2cccc(F)c2)C(C(=O)OC)=C1C	inconclusive: 39.8 µM [inhibitor, single point]
Cc1cccc(C(=O)Nc2cccc(C(=O)OCc3cc(=O)n4nc(C5CC5)sc4n3)c2)c1	inconclusive: 10 µM [inhibitor, full curve, poor fit]
CSc1nc(N2CCN(c3ccccc3Cl)CC2)c2ccccc2n1	inactive
CC(=O)Nc1nc2ccc(NC(=O)c3ccco3)cc2s1	inconclusive: 50.1 µM [inhibitor, single point]
COC(=O)c1ccccc1NC(=O)CCCn1nc([N+](=O)[O-])c(Br)c1C	inconclusive: 35.5 µM [inhibitor, partial curve]
Cc1ccc(C(=O)OCC(=O)NC(=O)Cc2ccccc2)c(O)c1	inconclusive: 7.94 µM [inhibitor, full curve]
